# Data from the supplement of paper PMC11417369.
# The other results are listed elsewhere or left out.
# Test system: PfHDP1 homeodomain (GST-tagged)
# Assay: gcPBM binding intensity (ln(normalized median fluorescence intensity)); higher = stronger DNA binding
# Summary of the method: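 Alexa488 anti-GST antibody, scanned at 488 nm, detected GST-tagged P. falciparum DNA-binding domains that had been expressed in E. coli and incubated for 1 h on an Agilent 4 × 180k array. The array carried primer-extended double-stranded 36-bp intergenic genomic probes and negative controls. Binding intensity is the highest Masliner-normalised natural-log median intensity across replicate spots of either orientation of each probe.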
row,Sequence,gcPBM binding intensity (ln)
1,AATCAAAACAACAATAGTACATAAAAAAACAAAACA [XGTACX_site4181],6.91
2,ATACATAAATTTAGAAGTACATAACAAATTTTTAAA [XGTACX_site7448],6.37
3,TCCATATTTGTTCACACACACACATATTTATATATA [CACACA_site3570],7.04
4,ATTAAATGTTATATTTGTACATATTATATATATATA [XGTACX_site5095],8.6
5,TTCATTTTTTATTATAGTACACATAATATTTGCAGA [XGTACX_site4032],6.78
6,TTTGTTATTTTTTATTGTACTTTTTTTCTTTCATAA [XGTACX_site4302],7.03
7,ATATTTTTAGGTGATTATTATTCGGAGAAGCGAATT [CACACA_negctrl_site1097],6.2
8,GTGAGCTCAGACTACACACACAAAGAAAAAAATAAA [CACACA_site1553],6.56
9,TATATAAACACGTACACACACATATCTGTATTTATA [CACACA_site5858],7.01
10,AATACCTACCAAACATGTACATACGCTTCTCAAATA [XGTACX_site5535],6.83
11,ATACAACAAAAATAAGCACACACAAATATACATACA [CACACA_site9201],6.88
12,AACAAATACAGACACACACACACACCCAAAAAAAAA [CACACA_site515],6.75
13,ATAAAAATTTAAAAAGAACACACGAAAGAAGGACTT [CACACA_site3929],7.03
14,TATTGTTCTTATTTAGTGCATATATAATATAATATA [GTGCAC_site9827],8.85
15,ATGTTCTTATTATTGGTGCAAGAATACACAAGAAAA,9.55
16,TATGTGAATAAATAAGCACACATAAACACATATATA [CACACA_site9359],6.71
17,AACACATAATAAAATTGTACCCAACATTTCTTTTGA [XGTACX_site8061],6.19
18,AATAAGAGGATACATTGTACATAAAAAAAAAAAATA [XGTACX_site1815],6.5
19,TTTTGAAGCTTTAAAACATATATATATATATATATA [CACACA_negctrl_site184],9.53
20,AGCAAAACAAAAAAATTAAAATTAACATATAATCAT [GTGCAC_negctrl_site393],6.17
21,ATACCCACTTAAAATACACACACACCGAAAAAAAAA [CACACA_site8867],6.73
22,GTGTATAGAATGGTTTCTTTTAAGGTTTTTATTTTT [CACACA_negctrl_site564],6.8

row,Sequence,gcPBM binding intensity (ln)
1,AGGTTCTTTTTAAATGGTACACATAATTTGAAGATA [XGTACX_site400],6.57
2,TCTTAAAAGGGGAATGGAATGGAGAAAATGAAATAA [GTGCAC_negctrl_site30],6.51
3,AATATTTTCTTGTACGCATGCACATCCAAATTATAT [TGCATGCA_site873],7.81
4,TGACCTGTTCAGGTAACACACATATAAACACATACA [CACACA_site4186],6.86
5,ATATATTAATAATTTTGTACGCATTTCCTTTTTATT [XGTACX_site1638],6.86
6,GAAAATATTTCCGTATGTACTTATTTTAGTCTACTA [XGTACX_site471],6.06
7,AAAAAAAAAAAAAAATGTACAAATAAAGAAATATGA [XGTACX_site4371],6.45
8,CTTTTTATTTAGAACACACACAAAAAAAAAAAAAAA [CACACA_site1761],6.4
9,ATACATAAATATATATGTACATATATATATATATAT [XGTACX_site1055],9.19
10,TGCAGTCTGGAGAAACGTACATAGTATCTGGTAGCT [XGTACX_site4937],6.26
11,AAAATATATTTAAATTGTACACGTTACCATAACAAT [XGTACX_site2598],6.75
12,ATGAATACAAAATTATACAAAATTATCAAAAGTATG [CACACA_negctrl_site1453],6.26
13,TAATTCTAAATAAATGTACACACAAAAATAAATGTA [CACACA_site8509],6.64
14,CTATTTTATATGTGCACACATATACACCCACAAATA [CACACA_site1131],10.1
15,TTGATAAAATGGGAGAAATTAAAAAGGAAAAAAAAA [CACACA_negctrl_site1279],5.77
16,TTATAAAATTTTCTTCTATATTTTAATTATTCTCAT [TGCATGCA_negctrl_site571],6.42
17,TATATATATATTATATGTACATAAATATTTATACTC [XGTACX_site114],8.24
18,ATTAAAAGAACCAAGTGTACATTCTATATATAAAAA [XGTACX_site4260],6.34
19,TATACAATATATTTTGGTACACAAACAAAAAAATAT [XGTACX_site2522],6.55
20,ATATTATGATCTATTTTTATATTCTATTTGATAAAT [CACACA_negctrl_site1070],6.47
21,GTTCACCAAAGGTAACGTACACAAACATATATATAT [XGTACX_site1073],8.66
22,GAAAAAGACAAAAGGTGTACAATATGAAATATATAT [XGTACX_site373],6.81

row,Sequence,gcPBM binding intensity (ln)
1,TATGATTTTAACAACTGTACAATATAATAAATCTAA [XGTACX_site2198],6.15
2,TGGGTCTCTAACTGGTGTACTATTTACATATTATAC [XGTACX_site8593],6.86
3,TAAAAGAAAAATTAGTGTACCAATATTAACATAAAA [XGTACX_site5474],6.09
4,ATATATTTTTAATTACGTACTTAATAATATATACAA [XGTACX_site3285],6.43
5,TCTCATAGGAAACACACACACACACCCACATATATA [CACACA_site1738],6.97
6,TAAATAAAAAAAAAAAGTACATACATACAAACATAT [XGTACX_site4427],6.52
7,ATATATGTGCGCGTATGTACATAAAATAAATATACA [XGTACX_site2689],7.55
8,ATATATTTTTTAAATTTAAAAATTATAAAATTTATA [TGCATGCA_negctrl_site36],6.53
9,AAACGATCTCGATGTTGTACACATTTATATAGAAAC [XGTACX_site4373],7.26
10,CATGTGTGTATAATTTGTACATATACATAATAAATA [XGTACX_site2418],6.57
11,CTAAACTAAACAAACTGTACACAAATAAAACAATAA [XGTACX_site8880],6.99
12,TACTAAAATATATATATGCAACATGAGATATTCAAC [XGTACX_negctrl_site283],7.19
13,ATATCAACTGAATTGTATAGGCGATAAAAGAAAAAA [CACACA_negctrl_site1334],6.58
14,ATATAAATATATGTATGTACACATTTTTTTTTTTTT [XGTACX_site247],6.47
15,AGAATTATAAATTATAGTACATAAAATTTTGATGTA [XGTACX_site5726],6.4
16,AAGTTTATTATATATAAATTATTATATATATATATA [CACACA_negctrl_site189],9.02
17,AAAATAATAATTAAATAATAGTAAATGAAAAATAAA [CACACA_negctrl_site57],6.63
18,ACTTCATTTTATAAGTGTACATAATTTGTTTATATA [XGTACX_site5453],6.62
19,TATGTGTTCAGTATTGCACACACACTCCAAAATAAA [CACACA_site8018],10.2
20,ATAAATACTAGGCACACACACATATAGATTTATATA [CACACA_site7064],6.8
21,GTTGTCCCCCTTTCTATGCACACTTTAAATTATTCA [CACACA_site52],9.08
22,ATTCTAATAGATAGTAGTACCTATAAGTTTTCTTTT [XGTACX_site2315],6.02

row,Sequence,gcPBM binding intensity (ln)
1,AATTTATAAGAATATTGTACGTTTAATATATTGTAA [XGTACX_site7553],6.48
2,TCACACACTCTCAAAAGTACAAGAAGATTATGAAGA [XGTACX_site4748],6.6
3,ATCTATCATATTTATGCACACAAAAATAATTAATTC [CACACA_site8837],9.66
4,ATGAACTAAACTAATCGTACAATAAGTTTTATTATA [XGTACX_site4891],6.11
5,AAAAAAATATATAAATGTACATATTGTTTAATTAAT [XGTACX_site3794],6.47
6,TATTATTTACTTATTGCACACATATAAAATATATTT [CACACA_site9017],10.2
7,TAAAAGATAAAATATGCATGTGTAATTTTTTTTTTT [TGCATGCA_site955],6.4
8,TTTATAACATTTAAGAGTACAAAAAAATAAATAAAT [XGTACX_site1264],6.71
9,TTCAACGTTTTGGAATGTACAGAAAGGTATCCATCA [XGTACX_site179],6.43
10,GAAATATAATTTATTACACACATTTTAAAAAAATTC [CACACA_site1087],6.07
11,AAAAAAAAAAAAAAAAAAAAAAAAAAAAAATATGTG [GTGCAC_negctrl_site657],7.24
12,TAATTTATTACCATGTAATTATTACGAATATAGGAT [CACACA_negctrl_site694],6.46
13,AAAAAATTATTAATTTGTACATAAATAACCAAAAAA [XGTACX_site2488],6.36
14,TATATATTAAAATAATCACACACATCAATTAATGGT [CACACA_site8331],6.55
15,TTTTTTTTTTTTTTTTTTTTTTTTTTATGATATATA [GTGCAC_negctrl_site365],6
16,ATATTATAATGTTTTTACGAATTCGCAAATTATTAT [GTGCAC_negctrl_site470],6.52
17,ATATGCACTCATTGTGCACACGCATATTACGAAAAG [CACACA_site2637],11.6
18,AATTTACAAAAAAGAAAAAAAAAAAAAAAGATACTT [CACACA_negctrl_site1434],5.89
19,TTAATTATCCATTTTGCACACATTTTAAAACATGAA [CACACA_site189],10.7
20,AGATTGTATTTATGTACACACATTTTTGGAATATGA [CACACA_site1340],6.95
21,TTAAATATAATTATATGTACATATTTATGTATATAT [XGTACX_site5811],6.32
